Results from the supplement of paper PMC9446081.
The campaign covered roughly 39,000 compounds. About 220 (0.56%) showed activity. This is one part of the list.
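Note: static incubation at 37 °C against the wild-type strain, values averaged over two biological replicates.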

The molecules below were run on Escherichia coli K-12 BW25113 (assay: relative growth (OD600 normalised to plate interquartile mean) (fraction); higher = less growth inhibition, active = 0.2 or less). Settings: 50 µM; LB; incubation time: overnight (16-24 h).
`Cc1noc(C2CNC2)n1` was tested, and the relative growth was inactive: 1.01. `CCCN(C)C[C@H]1OCCCC[C@@H](C)Oc2ccc(NC(=O)Nc3ccc(C(F)(F)F)cc3)cc2C(=O)N([C@@H](C)CO)C[C@H]1C` was tested, and the relative growth was inactive: 0.968. With `CN(C)CC(=O)N[C@H]1CC[C@H](CCNS(=O)(=O)c2ccccc2)O[C@@H]1CO` the relative growth was inactive: 1. With `CC(N)(Cc1ccc2c(c1)OCO2)C(=O)O` (configuration not stated) the relative growth was inactive: 1.04. For `CC(C)NC(=O)Nc1cccc2c1O[C@@H](CN(C)C(=O)Nc1ccc3c(c1)OCO3)[C@@H](C)CN([C@H](C)CO)C2=O`, the relative growth was inactive: 0.977. With `C[C@@H]1CN([C@H](C)CO)S(=O)(=O)c2ccc(C#Cc3cccc(F)c3)cc2O[C@@H]1CN(C)CC1CC1` the relative growth was inactive: 0.981. `C[C@@H]1CCCCO[C@@H](CN(C)C(=O)CCC(F)(F)F)[C@@H](C)CN([C@@H](C)CO)C(=O)c2cc(NC(=O)C3CCCCC3)ccc2O1` was tested, and the relative growth was inactive: 0.988. In the case of `CC(C)NC(=O)Nc1ccc2c(c1)C(=O)N(C)[C@@H]1CC[C@@H](CC(=O)NCc3ccc(F)cc3)O[C@H]1CO2`, the relative growth is reported as inactive: 1.03. `CO[C@H]1CN(C)C(=O)c2cc(NC(=O)Nc3ccc(Cl)cc3)ccc2OC[C@@H](C)N(C(=O)Nc2c(C)noc2C)C[C@H]1C` was tested, and the relative growth was inactive: 0.99. For `C[C@H]1CN([C@@H](C)CO)C(=O)c2cc(/C=C/c3ccccc3)cnc2O[C@@H]1CN(C)S(=O)(=O)c1cn(C)cn1`, the relative growth was inactive: 0.996. `C[C@@H]1CN([C@H](C)CO)C(=O)c2cc(C#C[C@@H](C)O)cnc2O[C@@H]1CN(C)C(=O)Nc1ccc(C(F)(F)F)cc1` was tested, and the relative growth was inactive: 1.01. `CC(=O)n1cc([C@@H]2C=C(C(=O)N3CCN(Cc4ccccc4)CC3)O[C@H](OCc3ccc(CO)cc3)C2)c2ccccc21` was tested, and the relative growth was inactive: 1.02. `C[C@H](CO)N1C[C@H](C)[C@@H](CN(C)C(=O)Nc2ccc3c(c2)OCO3)Oc2cc(C#Cc3cccnc3)ccc2S1(=O)=O` was tested, and the relative growth was inactive: 1.02. For `Cc1noc(C)c1NC(=O)Nc1ccc2c(c1)C(=O)N([C@H](C)CO)C[C@@H](C)[C@H](CN(C)Cc1ccncc1)OCCCC[C@@H](C)O2`, the relative growth was inactive: 0.993. `Cc1ccc(S(=O)(=O)N(C)C[C@H]2OCCCC[C@H](C)Oc3ccc(NC(=O)Cc4ccccc4)cc3C(=O)N([C@@H](C)CO)C[C@@H]2C)cc1` was tested, and the relative growth was inactive: 0.993. For `C[C@H](CO)N1C[C@H](C)[C@H](CN(C)C(=O)c2cc(-c3ccccc3)on2)OCc2cnnn2CCCC1=O`, the relative growth was inactive: 0.995. In the case of `COCCNC(=O)C[C@H]1CC[C@@H]2[C@H](COC[C@H](O)CN2C(=O)Nc2ccc3c(c2)OCO3)O1`, the relative growth is reported as inactive: 0.988. In the case of `CC1=CC[C@H](C(C)(C)O)CC1`, the relative growth is reported as inactive: 0.957. With `CC(C)NC(=O)Nc1ccc2c(c1)C(=O)N([C@@H](C)CO)C[C@@H](C)[C@@H](CN(C)C(=O)C1CCCCC1)OCCCC[C@H](C)O2` the relative growth was inactive: 0.978. In the case of `C[C@H]1CN([C@@H](C)CO)C(=O)c2cc(NC(=O)C3CCCCC3)ccc2O[C@H]1CN(C)Cc1ccc(C(=O)Nc2ccccc2N)cc1`, the relative growth is reported as inactive: 0.938. With `Cc1noc(C)c1S(=O)(=O)Nc1ccc2c(c1)C(=O)N([C@H](C)CO)C[C@@H](C)[C@H](CN(C)C(=O)Nc1ccccc1)OCCCC[C@@H](C)O2` the relative growth was inactive: 1.05. In the case of `C[C@H](CO)N1C[C@H](C)[C@@H](CN(C)C(=O)NC2CCCCC2)Oc2c(NC(=O)C3CCOCC3)cccc2C1=O`, the relative growth is reported as inactive: 1.02. With `C[C@@H]1CN([C@H](C)CO)C(=O)c2cc(NC(=O)Cn3cnnn3)ccc2O[C@H]1CN(C)C(=O)NC1CCCCC1` the relative growth was inactive: 0.992. `Cc1noc(C)c1S(=O)(=O)Nc1ccc2c(c1)CC(=O)N([C@@H](C)CO)C[C@@H](C)[C@H](CN(C)Cc1ccc(-c3ccccc3)cc1)O2` was tested, and the relative growth was inactive: 1.03. For `CCC(=O)N1C[C@]2(C1)CN([C@H](CO)c1c2c2ccc(cc2n1C)OC)S(=O)(=O)C`, the relative growth was inactive: 0.932. In the case of `C=C[C@]1(C)C=C2CC[C@H]3C(C)(C)[C@H](O[C@@H]4O[C@@H](CO)[C@H](O)[C@H]4O)CC[C@@]3(C)[C@H]2C[C@@H]1O[C@@H]1O[C@H](CO)[C@@H](OC)[C@H](O)[C@H]1O`, the relative growth is reported as inactive: 0.994. With `C[C@@H]1CN([C@@H](C)CO)C(=O)c2cc(NC(=O)c3ccccc3)ccc2O[C@@H](C)CCCCO[C@H]1CN(C)Cc1ccccc1` the relative growth was inactive: 0.945. With `Cc1noc(C)c1NC(=O)Nc1ccc2c(c1)CC(=O)N([C@@H](C)CO)C[C@H](C)[C@@H](CN(C)Cc1ccc(Cl)c(Cl)c1)O2` the relative growth was inactive: 0.986. For `CCCCC[C@H]1C[C@H]1C[C@H]1C[C@H]1CCCCCCCC(=O)O`, the relative growth was inactive: 0.927. For `CCCC(=O)Nc1ccc2c(c1)OC[C@H](C)N(S(=O)(=O)c1cn(C)cn1)C[C@@H](C)[C@@H](OC)CN(C)C2=O`, the relative growth was inactive: 0.985. In the case of `Cc1ccc(S(=O)(=O)Nc2cccc3c2O[C@@H](CN(C)Cc2ccc(C(F)(F)F)cc2)[C@@H](C)CN([C@@H](C)CO)C3=O)cc1`, the relative growth is reported as inactive: 0.986. `COc1ccc(CN(C)C[C@H]2OCCCC[C@H](C)Oc3ccc(NS(=O)(=O)c4ccc(C)cc4)cc3C(=O)N([C@H](C)CO)C[C@H]2C)cc1` was tested, and the relative growth was inactive: 1.01. For `C[C@@H]1CCCCO[C@H](CN(C)S(=O)(=O)c2ccccc2)[C@H](C)CN([C@@H](C)CO)C(=O)c2cc(NC(=O)C3CCCCC3)ccc2O1`, the relative growth was inactive: 1.02. For `C[C@@H]1CN([C@H](C)CO)C(=O)c2cc(NC(=O)c3ccccc3)ccc2O[C@@H](C)CCCCO[C@@H]1CN(C)S(=O)(=O)c1cccs1`, the relative growth was inactive: 1.03. With `C[C@@H]1CCCCO[C@H](CN(C)S(=O)(=O)c2ccc(Cl)cc2)[C@@H](C)CN([C@@H](C)CO)C(=O)c2cc(NC(=O)Nc3ccc(F)cc3)ccc2O1` the relative growth was inactive: 1.05. `CC(=O)N1CCN(C(=O)Cc2ccc(S(C)(=O)=O)cc2)C[C@@H](O)C1` was tested, and the relative growth was inactive: 0.97. With `CCCC#Cc1ccc2c(c1)O[C@@H](CN(C)C(=O)c1cnccn1)[C@@H](C)CN([C@@H](C)CO)S2(=O)=O` the relative growth was inactive: 1.02. With `COc1ccc(CN(C)C[C@@H]2Oc3ccc(NC(=O)CCN4CCOCC4)cc3C(=O)N([C@@H](C)CO)C[C@@H]2C)cc1` the relative growth was inactive: 1. In the case of `COc1cccn(CC(=O)NN)c1=O`, the relative growth is reported as inactive: 1.01. For `Cc1ccc(S(=O)(=O)N2C[C@@H](O)COC[C@@H]3O[C@H](CC(=O)NCCCN(C)C)CC[C@H]32)cc1`, the relative growth was inactive: 1.01. In the case of `COc1ccc(S(=O)(=O)Nc2ccc3c(c2)C(=O)N([C@H](C)CO)C[C@@H](C)[C@@H](CN(C)S(=O)(=O)c2ccc(OC)cc2)O3)cc1`, the relative growth is reported as inactive: 1. For `N=C(N)NS(=O)(=O)c1ccc(N)cc1`, the relative growth was inactive: 0.867. For `COc1ccc2c3c([nH]c2c1)[C@@H](CO)N(CC1CCCCC1)C[C@]13CN(C1)C(=O)Nc1cccc(c1)F`, the relative growth was inactive: 1.03. For `CC(C)NC(=O)Nc1ccc2c(c1)C(=O)N([C@@H](C)CO)C[C@@H](C)[C@@H](CN(C)Cc1ccc(C(=O)O)cc1)O2`, the relative growth was inactive: 0.911. For `CO[C@@H]1CN(C)C(=O)c2ccc(NS(=O)(=O)CC(F)(F)F)cc2OC[C@@H](C)N(C(=O)NC(C)C)C[C@H]1C`, the relative growth was inactive: 1.01. In the case of `CC(C)(C)C(=O)C[n+]1cccc(C(N)=O)c1`, the relative growth is reported as inactive: 1.02. With `Cc1cc(C(=O)Nc2cccc3c2O[C@H](CN(C)S(=O)(=O)c2ccccc2)[C@@H](C)CN([C@@H](C)CO)C3=O)n(C)n1` the relative growth was inactive: 0.981. For `CCCNc1ncnc(N)c1[N+](=O)[O-]`, the relative growth was inactive: 0.973. `CCOC(=O)N(C)C[C@@H]1OCc2cn(nn2)CCCC(=O)N([C@H](C)CO)C[C@H]1C` was tested, and the relative growth was inactive: 1.02. `CN1C[C@@H](O)COC[C@H]2O[C@H](CC(=O)N3CCN(c4ccccc4)CC3)CC[C@@H]21` was tested, and the relative growth was inactive: 0.994. For `COc1ccc(CN(C)C[C@@H]2OCCCC[C@H](C)Oc3ccc(NC(=O)c4ccncc4)cc3C(=O)N([C@H](C)CO)C[C@@H]2C)cc1`, the relative growth was inactive: 1. For `C[C@H]1CCCCO[C@@H](CN(C)C(=O)Nc2ccccc2)[C@@H](C)CN([C@@H](C)CO)C(=O)c2cc(NC(=O)Nc3ccccc3)ccc2O1`, the relative growth was inactive: 1.02. For `Cc1noc(C)c1NC(=O)Nc1cccc2c1O[C@@H](CN(C)C(=O)NC(C)C)[C@@H](C)CN([C@H](C)CO)C2=O`, the relative growth was inactive: 1. `C[C@@H]1CN([C@@H](C)CO)C(=O)c2cc(NC(=O)CCN3CCOCC3)ccc2O[C@H]1CN(C)C(=O)Nc1ccc2c(c1)OCO2` was tested, and the relative growth was inactive: 0.974. For `CCC(=O)Nc1ccc2ccccc2c1`, the relative growth was inactive: 0.842. In the case of `N#Cc1ccc(N2CCCNCC2)nc1`, the relative growth is reported as inactive: 0.952. With `O=C(C[C@@H]1CC[C@@H]2[C@H](COC[C@H](O)CN2S(=O)(=O)c2ccccc2)O1)N1CCc2ccccc2C1` the relative growth was inactive: 1.01. For `C[C@H](CO)N1C[C@H](C)[C@H](CN(C)C(=O)Nc2ccc3c(c2)OCO3)Oc2c(NC(=O)C3CC3)cccc2C1=O`, the relative growth was inactive: 0.995. For `Cc1cncc2cccc(S(=O)(=O)NCCN(C/C=C/c3ccc(Br)cc3)C/C=C/c3ccc(Br)cc3)c12`, the relative growth was inactive: 0.98. For `COc1ccc(S(=O)(=O)N(C)C[C@@H]2Oc3ccc(NC(=O)c4ccncc4)cc3CC(=O)N([C@@H](C)CO)C[C@@H]2C)cc1`, the relative growth was inactive: 0.928. With `COc1ccc(NC(=O)Nc2cccc3c2O[C@@H](CN(C)Cc2ccc(C(=O)Nc4ccccc4N)cc2)[C@H](C)CN([C@H](C)CO)C3=O)cc1` the relative growth was inactive: 1.01. With `COc1ccc(NC(=O)Nc2cccc3c2O[C@H](CN(C)Cc2ccc(C(F)(F)F)cc2)[C@H](C)CN([C@@H](C)CO)C3=O)cc1` the relative growth was inactive: 0.992.
